# In PubChem BioAssay (Tox21):
# Where “and” joins values, the source holds several entries; their conditions need not be identical. Equal values may be shown once. Inconclusive means that the source gave no clear call. Such entries were picked first, then a sample of the others. A potency beside an inconclusive call is a rough fit, not a confirmed value. Calls of active or inactive are those of the source. Calls follow the shape of the dose curve; as a rule, active = well fitted curve in the direction sought with a large enough effect in the repeat runs; inconclusive = weak or mixed curves; inactive = no such curve, though single readings can be large; an effect the other way counts as inactive or inconclusive.
# Assay: qHTS assay to identify small molecule antagonists of the TGF-beta/Smad signaling pathway - cell viability counter screen (AID 1346824); also: nearly all actives have a fitted effect of over 50% in size; as to viability change, negative = cytotoxic: % is scaled to controls: 0 for no effect and ±100 for the full control effect
# Settings: SBE-bla HEK293T viability, CellTiter-Glo luminescence; series mostly up to 76.8 µM; viability change, negative = cytotoxic: at the top concentration
# In short: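 Cytotoxicity counter-screen run in the same wells as the beta-lactamase Smad reporter read: CellTiter-Glo luminescence after 30 min at room temperature. HEK 293T SBE-bla cells had 5 hr compound exposure at 37 C with TGF-beta1 (0.25 ng/mL stock).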
# Potency is read from the fitted curve at half-maximal effect; tags tell the direction and shape of the fitted curve.
SMILES,Potency,"viability change, negative = cytotoxic"
CCCCCCOC(=O)c1ccc(O)cc1,"inconclusive: 49 µM [cytotoxic, partial curve, poor fit]",–
CC/C(=C(\c1ccc(O)cc1)c1ccc(OCCN(C)C)cc1)c1ccccc1,active: 61.8 µM,–
CCCCCCOc1cc(C)c(O)c(C)c1C,"inconclusive: 39.4 µM [cytotoxic, partial curve, poor fit]",–
CCCCCCCCCCCCCCCCCC[N+](C)(C)Cc1ccccc1,active: 49.5 µM,–
CCCCC(CC)COC(=O)c1ccc(O)cc1 (stereo unspecified),"inconclusive: 54.7 µM [cytotoxic, single point] and inconclusive: 49 µM [cytotoxic, partial curve, poor fit]",–
CCN=c1cc2oc3cc(NCC)c(C)cc3c(-c3ccccc3C(=O)OCC)c-2cc1C,active: 48.8 µM and active: 49 µM,–
CN(C)CCCN1c2ccccc2CCc2ccc(Cl)cc21,"inconclusive: 61.6 µM [cytotoxic, single point]",–
CCCCCCCCCCCCCCCCCC[N+](C)(C)C,active: 43.8 µM,–
CCOC(=O)O[C@H](C)OC(=O)c1ccc2c(c1)cc(C(=O)NC1CCN(C(C)C)CC1)n2Cc1cc(-c2ccc(Cl)s2)on1,"inconclusive: 51.3 µM [cytotoxic, single point]",–
CCc1cc(Cc2cc(CC)cc(C(C)(C)C)c2O)c(O)c(C(C)(C)C)c1,active: 49 µM,–
Cc1oc(-c2ccccc2)nc1CCOc1ccc(C[C@H](Nc2ccccc2C(=O)c2ccccc2)C(=O)O)cc1,–,inactive: -6.24%
CCCCCCCCCCCCc1ccc(O)cc1,"inconclusive: 61.6 µM [cytotoxic, single point]",–
OC1(c2ccc(Cl)c(C(F)(F)F)c2)CCN(CCCC(c2ccc(F)cc2)c2ccc(F)cc2)CC1,active: 19 µM,–

# Assay: qHTS assay to identify small molecule agonists of the TGF-beta/Smad signaling pathway - cell viability counter screen (AID 1346829); also: nearly all actives have a fitted effect of over 45% in size
# Settings: SBE-bla HEK293T viability, CellTiter-Glo luminescence, 5 h; series mostly up to 76.8 µM; activity change, negative = cytotoxicity: at the top concentration
# In short: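 SBE-bla HEK 293T cells plated overnight, compound exposure 5 hr at 37 C. Viability read in the same wells by CellTiter-Glo luminescence after 30 min at room temperature, following the beta-lactamase read.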
row,SMILES,Potency
1,CN(C[C@@H](CC[N+]12CCC(C3CCCCC3)(CC1)CC2)c1ccc(Cl)c(Cl)c1)C(=O)c1cc(C(F)(F)F)cc(C(F)(F)F)c1,inconclusive: 54.9 µM [cytotoxic]
2,CCCCCCCCCOC(=O)c1ccc(O)cc1,"inconclusive: 24.2 µM [cytotoxic, full curve]"
3,CCCCCCCCCCCCN(CCO)CCO,"inconclusive: 54.7 µM [cytotoxic, single point]"
4,CCCCCCCCCCOCC(O)CN (stereo unspecified),"inconclusive: 26.8 µM [cytotoxic, single point]"
5,CN[C@H]1CC[C@@H](c2ccc(Cl)c(Cl)c2)c2ccc(S(N)(=O)=O)cc21,inconclusive: 54.9 µM [cytotoxic]
6,C=C1C(CCl)(CCl)C2(Cl)C(Cl)C(Cl)C1(Cl)C2(Cl)Cl (stereo unspecified),active: 54.3 µM
7,C#CC1(O)CC[C@H]2[C@@H]3CCC4=CCCC[C@@H]4[C@H]3CC[C@@]21C (stereo partly specified),"inconclusive: 54.9 µM [cytotoxic, single point] and inconclusive: 26.8 µM [cytotoxic, partial curve, poor fit]"
8,CC1=C(C(=O)OC(C)C)C(c2cccc([N+](=O)[O-])c2)C(C(=O)OC2CN(C(c3ccccc3)c3ccccc3)C2)=C(N)N1 (stereo unspecified),"inconclusive: 26.8 µM [cytotoxic, single point]"
9,CCc1cc(SCc2sc(-c3ccc(C(F)(F)F)cc3)nc2CN2CCN(c3ccc(OC)cc3)CC2)ccc1OCC(=O)O,"inconclusive: 61.6 µM [cytotoxic, single point]"
10,CN(C)CCOc1ccc(/C(=C(/CCCl)c2ccccc2)c2ccccc2)cc1,"inconclusive: 45.8 µM [cytotoxic, single point]"
11,N/C(=N\N=C\c1ccc(Cl)cc1)N/N=C/c1ccc(Cl)cc1,"inconclusive: 26.8 µM [cytotoxic, single point]"
12,OCCN1CCN(CC/C=C2/c3ccccc3Sc3ccc(C(F)(F)F)cc32)CC1,"inconclusive: 19 µM [cytotoxic, partial curve, poor fit]"
13,O=C1c2c(O)ccc(O)c2C(=O)c2c(NCCNCCO)ccc(NCCNCCO)c21,inconclusive: 21.3 µM
